According to PubChem BioAssay AID1508623 (National Center for Advancing Translational Sciences (NCATS), 2021):
Screen size: about 48,000 compounds; about 450 (0.94%) were called active. Inconclusive results (about 19%) are left out. Calls come from the whole dose curve; as a rule, active = well fitted inhibition curve with a large enough effect; inconclusive = small, poorly fitted or top-dose-only effect; inactive = no such curve, though single readings can be large or run the other way. The list shows a part of the results.

Assay: Primary qHTS for Identification of Small Molecule Inhibitors of Huntingtin Promoter Activity; note: nearly all actives have a fitted effect of over 50% in size
Settings: HEK293 HTT promoter firefly luciferase reporter (activity 0% = vehicle and -100% = no light), 24 h; series mostly up to 57.5 µM; activity change, negative = inhibition: at the top concentration
Outline: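 Firefly luciferase readout (Dual-Glo, 10 min RT) after 24 h, 37 °C compound exposure (final up to 57.5 uM) of HEK293 reporter cells cultured 24 h beforehand; PTC124 at 50 uM final as control inhibitor; activity scaled vehicle 0%, zero RLU -100%.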

Activity change, negative = inhibition, inactive:
CC(=O)c1ccc(OCC(=O)N2CCCCC2)cc1 7.7%, Cn1c(=O)n(CCCc2ccccc2)c(=O)c2c1nc1n2CCN1c1ccc(F)cc1 -13.9%, CCOC(=O)c1cc2c(=O)n3ccccc3nc2n(Cc2ccco2)c1=NC(=O)c1ccc(OCC)cc1 -18.6%, CCOCC(O)COc1ccc(NC(=O)CC[S+](C)C)cc1 (configuration not stated), CCCCOC(=O)c1ccc(NC(=O)c2cnc3ccc(C)cn3c2=O)cc1 -20.2%, CCN(c1cccc(C)c1)c1ncnc2c1cnn2-c1cccc(Cl)c1 -4.59%, CCn1c(=O)cc(OCC(=O)N2CCN(c3ccc(F)cc3)CC2)c2ccccc21 -6.3%, Cc1nn(C(=O)c2ccc(Br)cc2)c(C)c1Sc1ccccc1 -25.9%, COc1cc(OC)c(N(C)C(=O)c2sc3nc4n(c(=O)c3c2C)CCCC4)cc1Cl -10.7%, Cc1ccc(NC(=O)Cn2c(=O)n(Cc3nc(-c4ccccc4)no3)c(=O)c3cc4c(cc32)OCO4)c(C)c1 2.64%, COc1ccc(CCNC(=O)CSc2n[nH]c(-c3ccccc3Cl)n2)cc1OC -9.73%, COc1ccc(Cl)cc1NC(=O)CSC1=Nc2ccccc2C2=NC(CC(=O)NCc3cccs3)C(=O)N12 (configuration not stated) -27.1%, O=C(NCc1ccccc1)c1cnc(N2CCCCC2)c2ccccc12 6.09%, COc1cccc(Nc2nc3ccc(C)cc3nc2-n2nc(C)cc2C)c1 6.28%, COc1ccc(Nc2c(-c3ccccn3)nc3ccc(Cl)cn23)cc1 -6.95%, Cc1ccc(NC(=O)C2=CC(c3ccc4c(c3)OCO4)=NS(=O)(=O)N2C)cc1 -9.1%, CCc1ccc(-n2c(=O)c3cccnc3n2CC(=O)NCc2ccc(C)cc2)cc1 -8.68%, Cc1ccc(C(c2sc3nc(-c4ccco4)nn3c2O)N2CCC3(CC2)OCCO3)cc1 (configuration not stated) 18%, Cc1ccc(NC(=O)CSc2nc(-c3ccccc3Cl)nc3cc(=O)[nH]n23)c(C)c1 -17.1%, CCc1cccc(Nc2ncnc3onc(-c4ccc(F)cc4)c23)c1 -22.5%, O=C(CSc1nc(-c2ccc(F)cc2)cc(C(F)(F)F)n1)NCCc1ccccc1 -30.4%, COc1cccc(N2CCN(S(=O)(=O)c3ccc(-c4ccno4)cc3OC)CC2)c1 4.34%, O=C(CSc1cn(CC(=O)N2CCCCC2)c2ccccc12)Nc1ccc(C(F)(F)F)cc1 41.2%, COc1ccc(OC)c(C2NC(=O)NC(C)=C2C(=O)Nc2ccc(F)cc2)c1 (configuration not stated) -11.3%, CN1CCN(CCOc2cc(OC3CCOCC3)c3c(Nc4c(Cl)ccc5c4OCO5)ncnc3c2)CC1 -3.06%, Cc1ccc(C(=O)NCc2ccc(F)cc2)cc1NC(=O)c1nsc2ccccc12 -9.96%, CCN(CC)CCNC(=O)c1sc2ncccc2c1-n1cccc1 0%, Cn1cc(S(=O)(=O)c2ccccc2)c(=O)c2cc(F)c(N3CCCCCC3)cc21 -25%, Cc1cc(C)cc(-n2c(SCC(=O)Nc3ccc4c(c3)OCCO4)nc3c([nH]c4ccccc43)c2=O)c1 -19.4%, CC1=C(c2ccc(C)c(C)c2)S(=O)(=O)N=C1N1CCC(C(=O)NC(C)Cc2ccco2)CC1 (configuration not stated) -21.5%, COc1ccc(C)cc1-n1cnc2cc(C(=O)NC3CCCC3)ccc21 -20.2%, Cc1ccc(NC(=O)c2ccc(NC(=O)N3CCSc4ncccc43)cc2)c(C)c1 -14.8%, Cc1cc(C(=O)Nc2c(C)nc3ccccn3c2=O)ccc1[N+](=O)[O-] -12.8%, O=C(CSc1nc2c([nH]c3ccccc32)c(=O)n1-c1ccc(Cl)cc1)NCC1CCCO1 (configuration not stated) -9.5%, CCOc1ccc(/C=C/c2nc(C#N)c(NCCc3ccccc3)o2)cc1 -12.9%, COc1ccccc1NC(=O)Cn1c(=O)n(CCCCCC(=O)NCc2ccccc2)c(=O)c2sccc21 -11.8%, COC(=O)C(c1ccccc1Cl)N1CCc2sccc2C1 (configuration not stated) -7.54%, COc1cccc(C(=O)Nc2ccccc2-c2nnc(-c3cccc(OC)c3)o2)c1 21.5%, CC(=O)Nc1ccc(S(=O)(=O)NC2(C(F)(F)F)NC(=O)N(CCc3ccc(F)cc3)C2=O)cc1 (configuration not stated) -15.2% [at 11.5 µM], Cc1ccc(-n2c(SCC(N)=O)nc3c(oc4ccccc43)c2=O)cc1C -5.91%, CCOCCCn1c(=N)c(C(=O)NCC2CCCO2)cc2c(=O)n3cccc(C)c3nc21 (configuration not stated) -5.53%, Cc1ccc(C)c(N2CCN(Cc3csc(C)c3)CC2)c1 -21.9%, Nc1ccc(S(=O)(=O)Nc2ccnn2-c2ccccc2)cc1, COC(=O)C1=C(c2ccccc2)c2ccccc2S(=O)(=O)N1CC(=O)Nc1ccccc1Cl -17.8%, COC(=O)C1CCN(S(=O)(=O)c2cc3c4c(c2)CC(=O)N4CCC3)CC1 -20%, CCCN(CCC)CCCNC(=O)Cn1cnc2sc(C)c(S(=O)(=O)N3CCC(C)CC3)c2c1=O -9.09%, O=C(Nc1cccc(F)c1)c1ccc(-c2ccccc2)s1 27.8%, CCN(C)C(=O)Oc1cccc([C@H](C)N(C)C)c1, COc1ccc2c(c1)NC(c1cccnc1)=NC(c1ccc(F)cc1)=N2 26.8%, Cc1ccc(S(=O)(=O)c2cn(Cc3ccccc3Cl)c3ccc(F)cc3c2=O)cc1 -12.6%, COc1ccc(Br)cc1CNC(=O)c1ccc2c(c1)N(Cc1ccc(C)cc1)CCS2 -22.4%, Cc1ccc(CN2C(=O)c3ccccc3Sc3ccc(C(=O)OCc4ccco4)cc32)cc1 -27.4%, Cc1ccc(C)c(CN2C(=O)c3ccccc3S(=O)(=O)c3ccc(C(=O)NCc4ccccc4)cc32)c1 -16.3%, CCCN1CCc2nc(N3CCN(c4ncccn4)CC3)ncc2C1 3.11%, Cc1cccc(OCCCn2c(CCNC(=O)C(C)(C)C)nc3ccccc32)c1 -2.91%, CCn1cc2nc(SCc3cc(C)ccc3C)n(Cc3ccc(OC)cc3)c(=O)c2n1 -24.6%, Cc1cccc(OCCSc2nc3ccc(NC(=O)COc4ccccc4)cc3s2)c1 3.05%, Cc1ccc2c(=O)c(C(=O)c3ccc(F)cc3)cn(CC(=O)NCCc3ccccc3)c2n1 5.24%, CCOCCCNC(=O)C(=O)Nc1c2c(nn1-c1ccc(OC)cc1)CSC2 -16.8%, CCOc1ccc(C(=O)Nc2ccc3oc(-c4cccnc4)nc3c2)cc1 -8.67% [at 11.5 µM], Cc1c(C(=O)NCc2ccccc2Cl)sc2nc[nH]c(=O)c12 17.7%, Cc1ccc(-n2nc3c(=O)n(CCCC(=O)NCc4ccccc4F)nc(C)c3c2C)cc1 -18.5%, Cc1csc2nc(COC(=O)CNC(=O)c3ccccc3Cl)cc(=O)n12 8.04%, O=C(Nc1c(C(=O)N2CCN(c3ccccc3F)CC2)oc2ccccc12)c1ccccc1F -29.9%, O=C(CN1CCCN(Cc2ccc(F)cc2)S1(=O)=O)NCc1ccccc1Cl -19%, CN1CCN(CCCNC(=O)c2ccc3nc(Cc4ccccc4)oc3c2)CC1 -8.36%, CCn1cc(C(=O)NCc2ccc(C)cc2)c(=O)c2cc(S(=O)(=O)N3CCc4ccccc4C3)ccc21 -0.689%, N#Cc1ccccc1NC(=O)c1cnc(N2CCOCC2)c2ccccc12 -4.28%, CCC(=O)N1CCc2cc(Br)cc(S(=O)(=O)CCC(=O)NCc3ccc(F)cc3)c21 -8.41%, CC(=O)N1CCOc2cc(S(=O)(=O)N(C)Cc3ccccc3)c(Cl)cc21 -18.1%, COc1ccccc1-c1nnc(C2CCN(C(=O)c3ccc(Cl)cc3)CC2)o1 -12.2%, Cc1ccc(Cn2c(CNC(=O)c3cccc(C)c3)nc3ccccc32)cc1 -12.4%, COc1cccc2c1Oc1ncccc1N(C(=O)CCC(=O)NCc1ccc(C)cc1)C2 -2.57%, Cn1nnnc1SCCCNCc1cccc(OCc2ccccc2Cl)c1 -13.9%, CCOc1ccccc1NC(=O)Cn1c2ncccc2c(=O)n1-c1ccc(C)c(C)c1 -14.7%, CCC(=O)c1c(O)cc(O)cc1O 2.95%, Cc1oc(-c2ccc(C(=O)Nc3ccccc3F)cc2)nc1COc1ccccc1 -26%, COc1ccc(C)cc1NC(=O)CSc1nc(=O)n(Cc2ccccn2)c2c1CCC2 -5.08%, CC(=O)N1CCCc2cc(S(=O)(=O)Nc3ccc(C)c(F)c3)ccc21 -29.8%, Cc1oc2c(c(C)cc3oc(=O)c(CC(=O)NCc4ccc(F)cc4)c(C)c32)c1C -0.847%, Cc1cccc(C)c1NC(=O)CN1C(=O)c2cccc3cccc1c23 -21.4%, CCOc1ccc(NC(=O)CN2C(=O)C3(SCC(=O)N3c3ccc(F)cc3)c3ccccc32)cc1 (configuration not stated) -12.4%, CCc1nn(CC(=O)N2CCN(c3cccc(C(F)(F)F)c3)CC2)c(=O)c2cccn12 -16%, CCCCN(C)C(=O)Cn1c(SCC(=O)Nc2ccc(C)c(C)c2)nc2ccccc21 -30.4%, CCOC(=O)C1(C)C=C(Nc2ccc(C(=O)O)cc2)C(=O)N1c1ccc(C(=O)O)cc1 (configuration not stated) -5.8%, Cc1nc2ccccc2n1CCc1nc2c3ccccc3nc(SCc3ccc(F)cc3)n2n1 -9.33%, CC1Cc2ccccc2N1NC(=O)c1ccc(Cl)c(S(N)(=O)=O)c1 (configuration not stated), COc1ccc2c(c1)c1c(c(=O)n(-c3ccccc3C)c(=O)n1Cc1c(F)cccc1Cl)n2C -7.67%, CCOC(=O)c1c(C)oc2nc(C)nc(NCC3CCN(Cc4cccc(Cl)c4)CC3)c12 -19.2%, Cc1cccc(NC(=O)C2CCCN(c3nc4ccccc4s3)C2)c1C (configuration not stated) -4.45%, CCOC(=O)C1CCCN(C(=O)Cn2nc(CC)n3c(cc4occc43)c2=O)C1 (configuration not stated) -15.8%, Cc1ccc(CCNC(=O)c2ccc(CS(=O)(=O)Cc3ccccc3F)o2)cc1 -0.235%, CCOc1ccccc1NC(=O)CN1C=NS(=O)(=O)c2ccccc21 -16.9%, COc1cccc2cc(-c3nc(-c4ccc(C)cc4)c(C)s3)c(=O)oc12 -4.84%, Cc1ccc(NC(=O)CCNS(=O)(=O)c2ccc3c(c2)CCCC(=O)N3)cc1 -8.38%, CC1=C(C(=O)Nc2cccc(C(F)(F)F)c2)C(c2ccccc2)n2ncnc2N1 (configuration not stated) -9.94%, CCc1cccc(C)c1NC(=O)CCn1nc(C)c2c(C)n(-c3ccccc3)nc2c1=O -35.8%
